Laboratory results as given in article PMC12820563.
The other results are listed elsewhere or left out. The list includes weakly bound sequences.

Molecular target: T1, MBP-FoxP3dN (UniProt Q99JB6)
T1 sequence: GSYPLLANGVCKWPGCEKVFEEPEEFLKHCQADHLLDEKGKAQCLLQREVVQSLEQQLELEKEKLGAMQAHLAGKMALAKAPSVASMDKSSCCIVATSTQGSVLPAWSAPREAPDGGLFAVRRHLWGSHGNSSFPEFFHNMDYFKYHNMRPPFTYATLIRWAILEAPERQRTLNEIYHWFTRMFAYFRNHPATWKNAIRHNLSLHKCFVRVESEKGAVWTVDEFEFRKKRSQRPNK
Experiment: PD-seq (MBP pull-down with sequencing)
Conditions: 20 mM Tris-HCl pH 7.5, 100 mM NaCl, 1.5 mM MgCl2, 0.4 uM protein, 0.1 uM dsDNA library, 30 min, room temperature, amylose pull-down; high values mean tight binding; double strand, one strand shown

Row | Sequence | binding signal (RPM ratio (pull-down/input))
1 | GATGATTGTTCTCCCAGCTGATGAATTATTGGATTCGAGTAAACAAATTTTCCTAATCTTTCTGTTCAAGCGCCATCTAC | 0.397
2 | GATGATTGTTCTCCCAGCTGATGAATTCTCATTATCGAGTAAACAAATTTTCCTAATCTTTCTGTTCAAGCGCCATCTAC | 0.533
3 | GATGATTGTTCTCCCAGCTGATGAATTGAGGTCATCGAGTAAACAAATTTTCCTAATCTTTCTGTTCAAGCGCCATCTAC | 0.501
4 | GATGATTGTTCTCCCAGCTGATGAATTAGGTAAGTCGAGTAAACAAATTTTCCTAATCTTTCTGTTCAAGCGCCATCTAC | 0.37
5 | GATGATTGTTCTCCCAGCTGATGAATTGTATCATTCGAGTAAACAAATTTTCCTAATCTTTCTGTTCAAGCGCCATCTAC | 2.63
6 | GATGATTGTTCTCCCAGCTGATGAATTTTCACCATCGAGTAAACAAATTTTCCTAATCTTTCTGTTCAAGCGCCATCTAC | 0.331
7 | GATGATTGTTCTCCCAGCTGATGAATTAGCATGGTCGAGTAAACAAATTTTCCTAATCTTTCTGTTCAAGCGCCATCTAC | 1.13
8 | GATGATTGTTCTCCCAGCTGATGAATTTGATTCCTCGAGTAAACAAATTTTCCTAATCTTTCTGTTCAAGCGCCATCTAC | 2.35
9 | GATGATTGTTCTCCCAGCTGATGAATTGTATGTGTCGAGTAAACAAATTTTCCTAATCTTTCTGTTCAAGCGCCATCTAC | 3.75
10 | GATGATTGTTCTCCCAGCTGATGAATTCTTATTATCGAGTAAACAAATTTTCCTAATCTTTCTGTTCAAGCGCCATCTAC | 0.726
11 | GATGATTGTTCTCCCAGCTGATGAATTTGGCGGATCGAGTAAACAAATTTTCCTAATCTTTCTGTTCAAGCGCCATCTAC | 0.335
12 | GATGATTGTTCTCCCAGCTGATGAATTCAAGAGGTCGAGTAAACAAATTTTCCTAATCTTTCTGTTCAAGCGCCATCTAC | 0.218
13 | GATGATTGTTCTCCCAGCTGATGAATTGCCAATTTCGAGTAAACAAATTTTCCTAATCTTTCTGTTCAAGCGCCATCTAC | 0.55
14 | GATGATTGTTCTCCCAGCTGATGAATTGACAACATCGAGTAAACAAATTTTCCTAATCTTTCTGTTCAAGCGCCATCTAC | 2.61
15 | GATGATTGTTCTCCCAGCTGATGAATTATGGAGTTCGAGTAAACAAATTTTCCTAATCTTTCTGTTCAAGCGCCATCTAC | 0.486
16 | GATGATTGTTCTCCCAGCTGATGAATTCAAGTTTTCGAGTAAACAAATTTTCCTAATCTTTCTGTTCAAGCGCCATCTAC | 0.454
17 | GATGATTGTTCTCCCAGCTGATGAATTATTCTTCTCGAGTAAACAAATTTTCCTAATCTTTCTGTTCAAGCGCCATCTAC | 0.297
18 | GATGATTGTTCTCCCAGCTGATGAATTGATGGGCTCGAGTAAACAAATTTTCCTAATCTTTCTGTTCAAGCGCCATCTAC | 0.401
19 | GATGATTGTTCTCCCAGCTGATGAATTCCCTCGGTCGAGTAAACAAATTTTCCTAATCTTTCTGTTCAAGCGCCATCTAC | 0.192
20 | GATGATTGTTCTCCCAGCTGATGAATTCACACGCTCGAGTAAACAAATTTTCCTAATCTTTCTGTTCAAGCGCCATCTAC | 0.451
21 | GATGATTGTTCTCCCAGCTGATGAATTCGGTCGATCGAGTAAACAAATTTTCCTAATCTTTCTGTTCAAGCGCCATCTAC | 0.29

Row | Sequence | binding signal (RPM ratio (pull-down/input))
22 | GATGATTGTTCTCCCAGCTGATGAATTTCATAGTTCGAGTAAACAAATTTTCCTAATCTTTCTGTTCAAGCGCCATCTAC | 0.583
23 | GATGATTGTTCTCCCAGCTGATGAATTGAGACCCTCGAGTAAACAAATTTTCCTAATCTTTCTGTTCAAGCGCCATCTAC | 0.404
24 | GATGATTGTTCTCCCAGCTGATGAATTTTGCGGTTCGAGTAAACAAATTTTCCTAATCTTTCTGTTCAAGCGCCATCTAC | 1.31
25 | GATGATTGTTCTCCCAGCTGATGAATTCACGCACTCGAGTAAACAAATTTTCCTAATCTTTCTGTTCAAGCGCCATCTAC | 1.26
26 | GATGATTGTTCTCCCAGCTGATGAATTAAGAGGGTCGAGTAAACAAATTTTCCTAATCTTTCTGTTCAAGCGCCATCTAC | 0.295
27 | GATGATTGTTCTCCCAGCTGATGAATTTGCGTTCTCGAGTAAACAAATTTTCCTAATCTTTCTGTTCAAGCGCCATCTAC | 3.13
28 | GATGATTGTTCTCCCAGCTGATGAATTTCGTGACTCGAGTAAACAAATTTTCCTAATCTTTCTGTTCAAGCGCCATCTAC | 0.93
29 | GATGATTGTTCTCCCAGCTGATGAATTTCATGGTTCGAGTAAACAAATTTTCCTAATCTTTCTGTTCAAGCGCCATCTAC | 0.71
30 | GATGATTGTTCTCCCAGCTGATGAATTTACGGACTCGAGTAAACAAATTTTCCTAATCTTTCTGTTCAAGCGCCATCTAC | 0.345
31 | GATGATTGTTCTCCCAGCTGATGAATTTGCTTGCTCGAGTAAACAAATTTTCCTAATCTTTCTGTTCAAGCGCCATCTAC | 6.22
32 | GATGATTGTTCTCCCAGCTGATGAATTAAAGCACTCGAGTAAACAAATTTTCCTAATCTTTCTGTTCAAGCGCCATCTAC | 0.606
33 | GATGATTGTTCTCCCAGCTGATGAATTAATTTACTCGAGTAAACAAATTTTCCTAATCTTTCTGTTCAAGCGCCATCTAC | 3.63
34 | GATGATTGTTCTCCCAGCTGATGAATTCGGGCAGTCGAGTAAACAAATTTTCCTAATCTTTCTGTTCAAGCGCCATCTAC | 0.317
35 | GATGATTGTTCTCCCAGCTGATGAATTCCGAGGGTCGAGTAAACAAATTTTCCTAATCTTTCTGTTCAAGCGCCATCTAC | 0.291
36 | GATGATTGTTCTCCCAGCTGATGAATTTGGTCATTCGAGTAAACAAATTTTCCTAATCTTTCTGTTCAAGCGCCATCTAC | 0.824
37 | GATGATTGTTCTCCCAGCTGATGAATTGAAGCCCTCGAGTAAACAAATTTTCCTAATCTTTCTGTTCAAGCGCCATCTAC | 0.308
38 | GATGATTGTTCTCCCAGCTGATGAATTATCAGTCTCGAGTAAACAAATTTTCCTAATCTTTCTGTTCAAGCGCCATCTAC | 0.422
39 | GATGATTGTTCTCCCAGCTGATGAATTCGGGAATTCGAGTAAACAAATTTTCCTAATCTTTCTGTTCAAGCGCCATCTAC | 0.718
40 | GATGATTGTTCTCCCAGCTGATGAATTCGCTGCATCGAGTAAACAAATTTTCCTAATCTTTCTGTTCAAGCGCCATCTAC | 1.02
41 | GATGATTGTTCTCCCAGCTGATGAATTTCCGTAATCGAGTAAACAAATTTTCCTAATCTTTCTGTTCAAGCGCCATCTAC | 0.596
42 | GATGATTGTTCTCCCAGCTGATGAATTGATATAATCGAGTAAACAAATTTTCCTAATCTTTCTGTTCAAGCGCCATCTAC | 0.673

Row | Sequence | binding signal (RPM ratio (pull-down/input))
43 | GATGATTGTTCTCCCAGCTGATGAATTTCACGGGTCGAGTAAACAAATTTTCCTAATCTTTCTGTTCAAGCGCCATCTAC | 0.201
44 | GATGATTGTTCTCCCAGCTGATGAATTAAACATTTCGAGTAAACAAATTTTCCTAATCTTTCTGTTCAAGCGCCATCTAC | 0.817
45 | GATGATTGTTCTCCCAGCTGATGAATTGGCAGGATCGAGTAAACAAATTTTCCTAATCTTTCTGTTCAAGCGCCATCTAC | 0.271
46 | GATGATTGTTCTCCCAGCTGATGAATTGTTCGGGTCGAGTAAACAAATTTTCCTAATCTTTCTGTTCAAGCGCCATCTAC | 0.273
47 | GATGATTGTTCTCCCAGCTGATGAATTGAATCATTCGAGTAAACAAATTTTCCTAATCTTTCTGTTCAAGCGCCATCTAC | 0.789
48 | GATGATTGTTCTCCCAGCTGATGAATTAGAAATTTCGAGTAAACAAATTTTCCTAATCTTTCTGTTCAAGCGCCATCTAC | 0.246
49 | GATGATTGTTCTCCCAGCTGATGAATTTTCATGATCGAGTAAACAAATTTTCCTAATCTTTCTGTTCAAGCGCCATCTAC | 0.323
50 | GATGATTGTTCTCCCAGCTGATGAATTCCCATATTCGAGTAAACAAATTTTCCTAATCTTTCTGTTCAAGCGCCATCTAC | 0.358
51 | GATGATTGTTCTCCCAGCTGATGAATTCCCGTGTTCGAGTAAACAAATTTTCCTAATCTTTCTGTTCAAGCGCCATCTAC | 0.47
52 | GATGATTGTTCTCCCAGCTGATGAATTTAATCACTCGAGTAAACAAATTTTCCTAATCTTTCTGTTCAAGCGCCATCTAC | 0.559
53 | GATGATTGTTCTCCCAGCTGATGAATTGGTAACTTCGAGTAAACAAATTTTCCTAATCTTTCTGTTCAAGCGCCATCTAC | 0.514
54 | GATGATTGTTCTCCCAGCTGATGAATTGTGTTTATCGAGTAAACAAATTTTCCTAATCTTTCTGTTCAAGCGCCATCTAC | 8.53
55 | GATGATTGTTCTCCCAGCTGATGAATTTTAGATGTCGAGTAAACAAATTTTCCTAATCTTTCTGTTCAAGCGCCATCTAC | 0.461
56 | GATGATTGTTCTCCCAGCTGATGAATTCAACCTATCGAGTAAACAAATTTTCCTAATCTTTCTGTTCAAGCGCCATCTAC | 0.393
57 | GATGATTGTTCTCCCAGCTGATGAATTAATTTTATCGAGTAAACAAATTTTCCTAATCTTTCTGTTCAAGCGCCATCTAC | 0.794
58 | GATGATTGTTCTCCCAGCTGATGAATTCTTAGGTTCGAGTAAACAAATTTTCCTAATCTTTCTGTTCAAGCGCCATCTAC | 0.272
59 | GATGATTGTTCTCCCAGCTGATGAATTGGCGTCGTCGAGTAAACAAATTTTCCTAATCTTTCTGTTCAAGCGCCATCTAC | 0.961
60 | GATGATTGTTCTCCCAGCTGATGAATTACGGCTTTCGAGTAAACAAATTTTCCTAATCTTTCTGTTCAAGCGCCATCTAC | 1.11
61 | GATGATTGTTCTCCCAGCTGATGAATTCGAAAAATCGAGTAAACAAATTTTCCTAATCTTTCTGTTCAAGCGCCATCTAC | 0.194
62 | GATGATTGTTCTCCCAGCTGATGAATTTTAGGTGTCGAGTAAACAAATTTTCCTAATCTTTCTGTTCAAGCGCCATCTAC | 0.519
63 | GATGATTGTTCTCCCAGCTGATGAATTTCCACTATCGAGTAAACAAATTTTCCTAATCTTTCTGTTCAAGCGCCATCTAC | 0.392
